# Laboratory results published in PubChem BioAssay AID1259400 (National Center for Advancing Translational Sciences (NCATS), 2018).
# Hit rate of the full screen: of about 350,000 compounds, about 2,100 (0.6%) were called active. The shares of active, inactive and inconclusive entries below differ from those in the screen.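 Rule for the calls: active = activity change of -60% or lower, but not beyond a set lower limit; inconclusive = change between -60% and -40%, or beyond the set limit; inactive = change above -40%.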 Where a SMILES comes first, the peptide text is derived from it. The star is where a group is joined. Cbz = O=C(OCc1ccccc1)*; CH2Cl = ClC*
# Target: Relaxin receptor 1 (Homo sapiens) (UniProt Q9HBX9)
# Assay: qHTS Assay for Antagonists of the Relaxin Receptor RXFP1
# Settings: HEK293-RXFP1, relaxin-stimulated cAMP HTRF, 30 min; at 57.5 µM; stronger effect = lower value
# % is set by controls: 0 for no effect and ±100 for the full control effect.
# UniProt Q9HBX9, sequence (Q9HBX9 whole entry, looked up): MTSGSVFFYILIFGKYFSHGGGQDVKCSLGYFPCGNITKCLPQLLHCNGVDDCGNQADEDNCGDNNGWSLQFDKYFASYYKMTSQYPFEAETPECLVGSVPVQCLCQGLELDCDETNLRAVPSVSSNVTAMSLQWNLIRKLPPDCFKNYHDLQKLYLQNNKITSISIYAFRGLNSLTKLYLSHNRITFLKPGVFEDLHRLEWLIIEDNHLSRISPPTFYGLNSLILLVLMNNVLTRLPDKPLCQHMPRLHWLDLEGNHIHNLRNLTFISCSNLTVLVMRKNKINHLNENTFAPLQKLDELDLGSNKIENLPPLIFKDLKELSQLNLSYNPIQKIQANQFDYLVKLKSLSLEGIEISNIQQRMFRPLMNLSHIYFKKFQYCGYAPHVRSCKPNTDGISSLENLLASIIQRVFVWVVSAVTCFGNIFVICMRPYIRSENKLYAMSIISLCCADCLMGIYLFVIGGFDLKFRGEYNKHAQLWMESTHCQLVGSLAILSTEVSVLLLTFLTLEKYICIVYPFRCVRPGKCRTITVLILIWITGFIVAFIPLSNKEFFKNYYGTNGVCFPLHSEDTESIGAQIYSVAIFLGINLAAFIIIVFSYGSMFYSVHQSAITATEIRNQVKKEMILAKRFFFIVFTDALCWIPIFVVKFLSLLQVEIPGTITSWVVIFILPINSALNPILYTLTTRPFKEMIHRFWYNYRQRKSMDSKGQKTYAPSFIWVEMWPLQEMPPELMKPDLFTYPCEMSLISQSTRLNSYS
row,Structure (SMILES),"activity change, negative = inhibition"
1,CCCCCOc1ccccc1CN1C(=O)C(=O)c2cc(C)ccc21,inconclusive: -46.5%
2,COc1ccc(OC)c(-c2csc(NC(=O)CSc3ccc([N+](=O)[O-])cc3)n2)c1,inconclusive: -48.9%
3,CCOC(=O)c1ccc(NC(=O)c2oc3c(c2C)-c2nn(Cc4ccccc4Cl)cc2CC3)cc1,inconclusive: -41.2%
4,O=C(CCN1C(=O)c2ccccc2Sc2ncccc21)Nc1ccc(F)cc1,inactive: 5.15%
5,O=S(=O)(c1ccccc1Br)N1CCC(O)(c2cccnc2)CC1,inactive: -2.86%
6,CCc1ccc2nc(N(CCN(C)C)C(=O)c3ccc4ncsc4c3)sc2c1,active: -67.6%
7,Cc1ccc2c(C)c(C(=O)N3CCN(c4ncccn4)CC3)oc2c1C,inconclusive: -49.2%
8,CCCCc1ccc(NC(=O)CSc2nc(=O)[nH]c3c2CCCC3)cc1,inactive: -10.3%
9,CCN1CCN(c2oc(COc3ccc(-c4ccccc4)cc3)nc2C#N)CC1,inactive: -2.78%
10,COc1cc(/C=C2/C(=N)N3C(SC)=NSC3=NC2=O)ccc1OC(=O)c1ccco1,inconclusive: -49.7%
11,CO[C@H]1C=CO[C@@]2(C)Oc3c(C)c(O)c4c(O)c(c(/C=N/N5CCN(C)CC5)c(O)c4c3C2=O)NC(=O)/C(C)=C\C=C[C@H](C)[C@H](O)[C@@H](C)[C@@H](O)[C@@H](C)[C@H](OC(C)=O)[C@@H]1C,inconclusive: -45.6%
12,Cc1cc(-c2ccc(S(=O)(=O)Nc3ccc(Cl)cc3)cc2)on1,inconclusive: -48.1%
13,COCCNC(=O)C(c1ccc(C)cc1)N(Cc1ccco1)C(=O)CCC(=O)Nc1ccccn1 (stereo not drawn),inactive: 3.11%
14,CC(=O)C1=C(c2cccc([N+](=O)[O-])c2)N(C(C)=O)n2c(nnc2-c2ccc(C)cc2)S1,inactive: -9.31%
15,CCCCOC(=O)CSCC(=O)N1N=C(c2cccs2)CC1c1ccc(F)cc1 (stereo not drawn),inactive: 22.8%
16,O=C(N/C(=C\c1ccccc1)C(=O)N1CCOCC1)c1ccc(Br)o1,active: -70.3%
17,CCOC(=O)c1cc(-c2ccco2)nc2c1c(C)nn2-c1ccccc1,inactive: -4.34%
18,CCOC(=O)C(=CN=C(N)Nc1nc2ccccc2o1)C(=O)OCC,inconclusive: -46%
19,CN(C)c1ccc(NC(=O)C2C3C=CC(C3)C2C(=O)O)cc1 (stereo not drawn),active: -119%
20,Cc1[nH]n(-c2ccccc2)c(=S)c1C=NCCCN=Cc1c(C)[nH]n(-c2ccccc2)c1=S,inconclusive: -42.1%
21,CSc1cccc(NC(=O)C2CCN(S(=O)(=O)c3cnc[nH]3)CC2)c1,active: -62.5%

row,Structure (SMILES),"activity change, negative = inhibition"
1,O=C(Nc1cccc(Cl)c1)N1CCN(C2c3ccccc3-c3ccccc32)CC1,inconclusive: -44.1%
2,COc1nc2ccccc2nc1N1CCN(Cc2ccc3c(c2)OCO3)CC1,inconclusive: -44.7%
3,Cc1cc(CN(C)C(=O)CC2C(=O)NCCN2CC(c2ccccc2)c2ccccc2)on1 (stereo not drawn),inconclusive: -45.8%
4,Cc1ccc(OC(=O)c2c(C)nn(-c3ccccc3)c2C)cc1,inconclusive: -42.8%
5,Cc1cccc(C(=O)Nc2ccc3nc(SCC(=O)N4CCCC4)sc3c2)c1,active: -66.1%
6,Cc1ccc(C)c(Nc2nc3nonc3nc2Nc2cccc(C)c2C)c1,inconclusive: -44.2%
7,CCc1cccc(CC)c1-n1c(SCC(=O)N2CCCc3ccccc32)nc(O)cc1=O,inconclusive: -43.6%
8,Oc1cc(CNCc2ccccc2)c(O)cc1CNCc1ccccc1,inconclusive: -51.5%
9,O=C(Nc1ccc(C(=O)N2CCN(c3ccc(F)cc3)CC2)cc1)C1=CSCCO1,inconclusive: -56.2%
10,S=c1[nH]cc(-c2ccccc2)n1-c1ccccc1,inconclusive: -41.6%
11,CCN=c1scc(-c2ccccc2)n1/N=C/c1ccccn1,inconclusive: -40.5%
12,CCN(CC)c1cc2c(cc1F)c(=O)c(S(=O)(=O)c1ccc(C)cc1)cn2Cc1ccc(F)cc1,inactive: -10.3%
13,CCN(C(=O)CSc1nnc(-c2ccccc2)o1)c1c(N)n(Cc2ccccc2)c(=O)[nH]c1=O,inactive: -17.9%
14,CC(C)CN=c1cc(-c2ccccc2)oc2ccc(Cl)cc12,inconclusive: -43.5%
15,Cc1ccc(NC(=O)NNC(=O)c2cc3ccccc3cc2O)c(C)c1,inactive: -3.58%
16,O=C(NCc1ccccc1)c1ccc(CS(=O)Cc2ccc(Cl)cc2)o1 (stereo not drawn),inconclusive: -47.1%
17,CCOC(=O)C1(Cc2cccc(Cl)c2)CCCN(C(=O)c2ccc(C)nc2)C1 (stereo not drawn),inconclusive: -44.1%
18,COc1cccc(NC(=O)CN(C)C(=O)c2ccc3ccccc3c2)c1,inactive: 3.99%
19,Cc1cccc(OCC(=O)N(Cc2ccc(C(C)C)cc2)Cc2ccco2)c1C,inconclusive: -56.7%
20,O=C(NCc1ccccc1)C(c1ccco1)N(C(=O)c1csnn1)c1ccccc1 (stereo not drawn),inconclusive: -41.9%
21,Cc1ccc(C(=O)N(CCCN(C)C)c2nc3ccc(Cl)cc3s2)cc1C,active: -100%

row,Structure (SMILES),"activity change, negative = inhibition"
1,C[C@H]1NCc2cc(-c3ccc4c(=O)c(C(=O)O)cn(C5CC5)c4c3OC(F)F)ccc21,inactive: 8.73%
2,COC(=O)c1cc(NC(=O)c2cccc(C(F)(F)F)c2)c(=O)oc1C/C=N/OCc1cccc(Cl)c1Cl,inconclusive: -50.2%
3,CC(C)(C)C(=O)N1N=C(c2ccc(NS(C)(=O)=O)cc2)CC1c1cccs1 (stereo not drawn),inconclusive: -46.5%
4,CC(NC(=O)/C(C#N)=C/c1ccc([N+](=O)[O-])o1)c1ccccc1 (stereo not drawn),active: -74.5%
5,Nc1ncccc1C(=O)OCC(=O)N1CCN(S(=O)(=O)c2ccc(Cl)cc2)CC1,inactive: 0.494%
6,Cc1ccc(C(=O)c2sc(Nc3ccc(F)cc3)nc2N)c(C)c1,inconclusive: -52.7%
7,Cc1ccc(NC(=O)C2CCCN(c3ncnc4c3nc3n4CCCCC3)C2)cc1Cl (stereo not drawn),inconclusive: -40.8%
8,Cc1ccc(C)c(N2CCN(S(=O)(=O)c3c(C(=O)N4CCCCC4)c(C)n(C)c3C)CC2)c1,inconclusive: -48.7%
9,COc1cccc(N2CCN(c3ncnc4c3[nH]c3ccc(F)cc34)CC2C)c1 (stereo not drawn),active: -69.1%
10,Cc1ccccc1C(=O)Nc1ccnn1C1CCN(C(C)Cc2ccccc2F)CC1 (stereo not drawn),inconclusive: -41.7%
11,COc1ccc(N(CC(=O)NCc2ccc(Cl)cc2)S(=O)(=O)c2c(C)noc2C)cc1,inactive: -6.04%
12,C=CCN(C)NC(=O)Nc1ccccc1,inconclusive: -42.3%
13,CC1C(=O)N2CCCc3cc(S(=O)(=O)N4CCN(c5ccccc5F)CC4)cc1c32 (stereo not drawn),inconclusive: -40.7%
14,COc1ccccc1Oc1coc2c(CN(C)C)c(O)ccc2c1=O,inactive: 2.53%
15,CC(C)OC(=O)c1cc(C(=O)OC(C)C)cc([N+](=O)[O-])c1,active: -70.9%
16,Cc1ccc(-c2cn(-c3ccc(Cl)cc3)c(S(=O)(=O)CC(=O)Nc3ccccc3)n2)cc1,inconclusive: -40.8%
17,COCCN(C(=O)Cn1nnc2ccccc21)C(C(=O)NC1CCCC1)c1cc(OC)ccc1OC (stereo not drawn),inconclusive: -45.5%
18,CC(C)CC(NC(=O)OCc1ccccc1)C(=O)NC(Cc1ccccc1)C(=O)CCl (stereo not drawn) (Cbz-Leu-Phe-CH2Cl; configuration not given here),inconclusive: -52.1%
19,COc1ccc(C(=O)N/N=C(\C)c2ccccn2)cc1OC,inconclusive: -42.9%
20,CC1=Nc2cc(C(=O)NC(C)C)ccc2Sc2ccc(C)cc21,inactive: -2.46%
21,O=C(c1ncc[nH]1)c1cccs1,inconclusive: -43.8%

row,Structure (SMILES),"activity change, negative = inhibition"
1,CCCCN(C(=O)CSc1nnc(-c2ccccc2)o1)c1c(N)n(CCC)c(=O)[nH]c1=O,inactive: -0.612%
2,O=C(c1cnc(N2CCCCC2)c2ccccc12)N1CCN(c2ccc(F)cc2)CC1,inconclusive: -50.2%
3,O=C1CCCc2c1cc(-c1ccccc1)n2-c1ccccc1,inconclusive: -56.8%
4,O=C(c1n[nH]c2ccccc12)N1CCOCC1,inactive: -6.03%
5,Cc1nc(NC(=S)Nc2ccccc2)sc1C,inactive: -2.84%
6,CSC(=Nc1ccccc1)N=C(SCc1ccccc1)N(C)C,active: -100%
7,O=C(CN1CCCc2ccccc21)N/N=C/c1ccccc1,inactive: 4.09%
8,O=C(Cc1ccccc1)NCCSC1CCCCC1,inactive: -3.23%
9,Clc1c(Cl)c(Cl)c2n[nH]nc2c1Cl,inconclusive: -55%
10,O=C(COC(=O)c1ccc2[nH]c3c(c2c1)CCCC3)Nc1ccccc1,inconclusive: -46.4%
11,CC1=NNC(=O)/C1=C\c1cn(-c2ccccc2)nc1-c1cccs1,inconclusive: -42.1%
12,CCCNC(=O)OCCC12CC3CC(CC(C3)C1)C2,inconclusive: -42.5%
13,O=[N+]([O-])c1cc(S(=O)(=O)Oc2ccccc2)ccc1Cl,inconclusive: -56.4%
14,CC(C)CCn1c(=O)c2sccc2n2c(CCCC(=O)Nc3ccc(F)c(Cl)c3)nnc12,inactive: 4.36%
15,COc1ccc(S(=O)(=O)N2CCC(C(=O)NCCC(=O)NCc3ccccc3OC)CC2)cc1,inconclusive: -46%
16,O=C(c1ccc(F)cc1)N1CCC(C(=O)N(Cc2ccccc2)c2ccccc2)CC1,inactive: 9.83%
17,COc1cccc(NC(=O)c2oc3ccc(S(=O)(=O)N4CCC5(CC4)OCCO5)cc3c2C)c1,inconclusive: -42.6%
18,CC1CCC(N2CCN(c3ccc([N+](=O)[O-])cc3)CC2)CC1 (stereo not drawn),inactive: -23.4%
19,COc1cccc(-n2c(SCc3cc(=O)oc4cc(O)c(O)cc34)nc3ccccc3c2=O)c1,inconclusive: -51.6%
20,N#C/C(=C\c1ccc([N+](=O)[O-])o1)C(=O)Nc1ccc(F)cc1,active: -68.1%
